These results are taken from publication PMC12136788.

The other results are listed elsewhere or left out.

B1: chr9:128633378:128633479:+|3pUTR|ENSG00000197694|msi1|FALSE|bound_elsewhere (ssRNA)
RNA: GGGAGUUCUACAGUCCGACGAUCCUUGCUGCAUGUCCGCUCCUCUGUGUGCUCUCACUUUCCACUGUAACCUUAAGCCUGCUUAGCUUGGAAUAAGACUUAGGAGAAAAUGGUGCUUCACUAACCCGCUUCCGGUCCAGUCACCAACAGAGGAUUGAGCAUCA
B2: chr15:59081107:59081211:+|CDS|ENSG00000157450|unk|FALSE|unique (ssRNA)
RNA: GGGAGUUCUACAGUCCGACGAUCUUCUCAAAUAUCUUCUCAUGCAACAUCUCAUCCUGUGGCACCCCCACCACCAACUCACUUAGCCAGUACAGCUGCACCAAUCCCUCAGCAUCUUCCUCCUACACACCAGCCAAUUUCGCACAACAGAGGAUUGAGCAUCA
B3: chr8:6521177:6521410:-|CDS|ENSG00000091879|control|control|control (ssRNA)
RNA: GGGAGUUCUACAGUCCGACGAUCUCAGCUACAGGUGUUAGUAUCCAAGCAAAAUUCCAUCAUUGAAGAACUAGAAAAAAAAAUAGUGACUGCCACGGUGAAUAAUUCAGUUCUUCAGAAGCAGCAACAUGAUCUCAUGGAGACCAACAGAGGAUUGAGCAUCA
B4: chr9:26904889:26904990:-|3pUTR|ENSG00000137055|msi1|total|mutant (ssRNA)
RNA: GGGAGUUCUACAGUCCGACGAUCAUAAUUUCUUGAUUUGUCAUUUAUAAAUCCUAAAGUAUAUUUGUUUAAUGGCCUAUUUUCCGAUGAAGAAAAAGCCAGUUGGUAAGCUGUGUCCGUCAUGUAUCAGUUCAGACAGACGAGCAACAGAGGAUUGAGCAUCA
B5: chr2:201645282:201645383:-|CDS|ENSG00000082126|unk|total|mutant (ssRNA)
RNA: GGGAGUUCUACAGUCCGACGAUCUACUAUCCAUAUUUUUCUAUUUCUCCUAAAGGAUGAAGACCUACAAGAGAUGGAAAAUUCCGCCCAAAGAAUGGAAACUCAGUUUGGCCAAUUUUUUGAUCAUGUGAUUGUGAAUGACAGCAACAGAGGAUUGAGCAUCA
B6: chr14:90848141:90848242:-|3pUTR|ENSG00000100784|unk|total|mutant (ssRNA)
RNA: GGGAGUUCUACAGUCCGACGAUCCGAUAACUGGUACUGCCUUUGAUUAAAGGUGAGCUAUAUGGAGUUAAGCAUUUUUAUACCCGUAACUAUUUAUUGAGAAUUUUCAGAAUUCUACCGCUACUUGUCUUUAACAGUUAUAAGCAACAGAGGAUUGAGCAUCA
B7: chr12:88196262:88196297:+|3pUTR|ENSG00000139324|msi1_unk|total|mutant (ssRNA)
RNA: GGGAGUUCUACAGUCCGACGAUCUGUAUACUUGUUUUUAACUUUAAAUGUAAUUUUUAAUCAGGUAAAGUUUGACACAUGUACCGCUACAUACACACAUUUUUAAUGGUGCUCAUAUAUACUGUAUUUUUUGUUGUUCCGUUUCAACAGAGGAUUGAGCAUCA
B8: chr4:159352722:159352837:+|CDS|ENSG00000109756|unk|total|mutant (ssRNA)
RNA: GGGAGUUCUACAGUCCGACGAUCACUGUGGAUAAUUUUUCAGAUUCUGGUCACAGUGAAAUUUCUUCACGAUCCAGUAUUGUCCGCAAUUCGUCUUUUGACUCAGUGCCAGUCUCACUGCACGAUGAGAGGCGCCAGAGGCAUCAACAGAGGAUUGAGCAUCA
B9: chrX:152971868:152971969:+|3pUTR|ENSG00000147394|unk|total|mutant (ssRNA)
RNA: GGGAGUUCUACAGUCCGACGAUCUUCCCUUACAGGUAUGUUGGCAUGUGUUGGAAAAUUUACACAAUCCGGUUUAAAUUCAGCCGGAUGUGAUUUCCGGAUGCUACUGAUCAAAGUGAUAUCUGUGUCUGUUGGAAUCUUGAUCAACAGAGGAUUGAGCAUCA
B10: chr15:44524374:44524475:+|3pUTR|ENSG00000137770|msi1|total|mutant (ssRNA)
RNA: GGGAGUUCUACAGUCCGACGAUCUAUCUAUCUCAGAUCGAAUACAUACCGCCGGCCGGCUAAAACAGAAGAGUCUUCCGAACCCGUGCAACUCCAGUGAAAUUUUUUAUGUACAGGACAUCUGCAGUUUAUAAAGAAUUCUGUCAACAGAGGAUUGAGCAUCA
B11: chr10:102404582:102404727:-|CDS|ENSG00000059915|control|control|control (ssRNA)
RNA: GGGAGUUCUACAGUCCGACGAUCAUCACUCGCAUCAAUGUAGUAGCCGCUAUGUUCUCUGCGCCCCCCUUCCCAGCUGCUGUUAGCUCCCAAAAGAAGUUCAGCCGCCCUCUCCUGCCCAGCGCUGCCACCCGCCUCUCCCAGCAACAGAGGAUUGAGCAUCA
B12: chr1:178479239:178479534:-|three_prime_utr|ENSG00000188585|control|control|control (ssRNA)
RNA: GGGAGUUCUACAGUCCGACGAUCCAGUUUCUGUUUCAUGCAAUCUUCUCUGGAUUUUGAGUAAAUUUUAAUUUUUUAAUCCCUAGUAGAACAAGAUUAGGAAGAACUCGACAUGUGCCAAAAAGCACAGACCUACAACUAACACAACAGAGGAUUGAGCAUCA
B13: chr11:65967286:65967395:+|CDS|ENSG00000175467|unk|total|mutant (ssRNA)
RNA: GGGAGUUCUACAGUCCGACGAUCGACCUUUAAAAAGACCAAGCGGAGGGUGAAGAAAAUCCGCAAGAAGGAGAAGGAGGCCGCCGUGCGGGCAGAUGACUUGCUGCCUCUCGGGGACCAGACUCAGGAUGGGGACUUUGGUUCCAACAGAGGAUUGAGCAUCA
B14: chr14:103503186:103503248:+|CDS_3pUTR|ENSG00000075413|msi1_unk|FALSE|overlapping (ssRNA)
RNA: GGGAGUUCUACAGUCCGACGAUCUGCUUCCAAAAUUGCCAAUGAGCUAAAGCUGUAACCCAGUGAUUAUGAUGUAAAUUAAGUAGCAAUUAAAGUGUUUUCCUGAACACUGAUGGAAAUGUAUAGAAUAAUAUUUAGGCAAUACAACAGAGGAUUGAGCAUCA

The target of this assay is MSI1 full-length (mouse, UniProt Q61474 1-362). Put plainly: nsRBNS (natural sequence RNA bind-n-seq); RBNS binding buffer (assumed for nsRBNS): 25 mM Tris pH 7.5, 150 mM KCl, 3 mM MgCl2, 0.01% Triton X-100, 500 ug/ml BSA, 20 U/ml SUPERase-In, 4 C; UNK is unkempt and MSI1 is Musashi-1; names of the RNAs are library labels; protein concentration not given here; high values mean tight binding.
UniProt Q61474, sequence (Q61474 whole entry): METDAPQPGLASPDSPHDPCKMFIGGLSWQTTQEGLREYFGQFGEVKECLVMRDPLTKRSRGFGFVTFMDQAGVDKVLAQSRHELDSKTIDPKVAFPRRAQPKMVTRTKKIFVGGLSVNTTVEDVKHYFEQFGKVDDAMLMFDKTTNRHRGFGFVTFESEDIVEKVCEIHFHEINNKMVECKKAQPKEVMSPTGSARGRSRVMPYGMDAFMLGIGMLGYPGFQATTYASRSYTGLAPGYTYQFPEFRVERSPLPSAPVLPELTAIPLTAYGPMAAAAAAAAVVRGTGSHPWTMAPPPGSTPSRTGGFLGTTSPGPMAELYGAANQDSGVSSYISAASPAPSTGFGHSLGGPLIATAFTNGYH
Consider B1, for which the binding signal is 0.57 enrichment R.

In turn, B2 came in with a binding signal of 0.876 enrichment R.

In turn, B3 registered a binding signal of 0.674 enrichment R.

Molecule B4 displayed a binding signal of 0.779 enrichment R.

For B5, the binding signal was found to be 0.384 enrichment R.

B6 showed a binding signal of 1.32 enrichment R.

B7: the binding signal turned out to be 1.34 enrichment R.

As to B8, the binding signal is 0.197 enrichment R.

In the case of B9, the binding signal stood at 0.162 enrichment R.

Turning to B10, the binding signal stood at 0.475 enrichment R.

B11: the binding signal stood at 1.1 enrichment R.

For B12, the binding signal stood at 0.631 enrichment R.

In turn, B13 returned a binding signal of 0.583 enrichment R.

In the case of B14, the binding signal was determined as 7.85 enrichment R.
